Results as given in PubChem BioAssay AID1468 (National Center for Advancing Translational Sciences (NCATS), 2008).
Where “and” joins values, the source holds several entries; their conditions need not be identical. Equal values may be shown once. In all, about 280,000 compounds went through this assay and about 1,100 (0.39%) were called active. This list was built around the results that the source calls inconclusive (neither active nor inactive); the mix of calls is not that of the screen. The call rests on the fitted dose curve; in most records, active means well fitted inhibition curve with a large enough effect; inconclusive means small, poorly fitted or top-dose-only effect, or effect the other way; inactive means flat fitted curve, though single readings scatter. Potencies beside an inconclusive call are fits to weak or partial responses and may not hold up.

Target: Microtubule-associated protein tau (Homo sapiens) (UniProt P10636)
Assay: qHTS for Inhibitors of Tau Fibril Formation, Fluorescence Polarization; further: nearly all actives have a fitted effect of over 55% in size
Settings: K18 P301L tau heparin fibrillization, Alexa594 FP, 6 h; series mostly up to 57.7 µM; activity, negative = inhibition: at the top concentration
How it was run: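 K18 P301L tau (15 uM unlabeled/0.24 uM Alexa 594-labeled, final) + compound + heparin 20 uM final; 100 mM NaOAc pH 7; 6 hr 37 C; ThT 30 uM final added, 1 hr RT; FP ex 555/em 632 nm.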
On the % scale 0 is the no-effect control and ±100 the full control effect; potency means the concentration at half of the fitted maximal effect; tags describe the fitted curve by direction and shape.

Chain of UniProt P10636 (P10636 whole entry, looked up): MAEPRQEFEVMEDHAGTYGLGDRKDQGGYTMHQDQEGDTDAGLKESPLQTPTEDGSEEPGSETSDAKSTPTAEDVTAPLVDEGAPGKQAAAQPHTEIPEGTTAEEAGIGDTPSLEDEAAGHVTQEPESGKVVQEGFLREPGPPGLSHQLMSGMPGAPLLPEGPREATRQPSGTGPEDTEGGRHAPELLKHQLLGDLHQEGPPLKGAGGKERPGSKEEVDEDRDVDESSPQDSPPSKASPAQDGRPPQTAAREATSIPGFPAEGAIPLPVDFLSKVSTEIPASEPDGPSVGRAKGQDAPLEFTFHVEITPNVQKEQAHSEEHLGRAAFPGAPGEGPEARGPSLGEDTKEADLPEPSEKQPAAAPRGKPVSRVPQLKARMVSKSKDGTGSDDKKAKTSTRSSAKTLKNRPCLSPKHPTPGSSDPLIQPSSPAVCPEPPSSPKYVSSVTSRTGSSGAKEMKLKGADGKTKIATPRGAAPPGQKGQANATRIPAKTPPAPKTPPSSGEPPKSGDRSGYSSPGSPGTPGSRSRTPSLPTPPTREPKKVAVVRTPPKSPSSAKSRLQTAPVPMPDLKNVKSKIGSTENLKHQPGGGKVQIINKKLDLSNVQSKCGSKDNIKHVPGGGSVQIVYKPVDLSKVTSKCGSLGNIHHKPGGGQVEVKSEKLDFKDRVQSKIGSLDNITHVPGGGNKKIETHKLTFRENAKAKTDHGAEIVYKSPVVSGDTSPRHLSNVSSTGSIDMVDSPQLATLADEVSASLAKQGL

Structure (SMILES) | activity, negative = inhibition | Potency
CCOC(=O)c1ccc(NC2=CC(c3ccc(O)c(OCC)c3)N(c3ccc(C(=O)OCC)cc3)C2=O)cc1 (configuration not stated) | inactive: 0.928% | –
COc1ccc(/C=C/C(=O)NCc2cn(C)nc2C)cc1COc1ccc(Br)cc1 | – | inconclusive: 39.8 µM [activator, single point]
O=C1c2ccccc2C(Nc2ccc3c(c2)OCCO3)N1c1ccccn1 (configuration not stated) | – | inconclusive: 22.4 µM [activator, partial curve, poor fit]
Cc1ccc(S(=O)(=O)N2CCc3cc(C(=O)Nc4ccc(C)c(C)c4)ccc32)cc1 | – | inconclusive: 25.1 µM [inhibitor, single point]
Cc1ccc(Cn2cc(/C=C(/C#N)C(=O)Nc3cccc(Cl)c3)c3ccccc32)cc1 | – | inconclusive: 12.6 µM [inhibitor, partial curve]
CC1(C)CC(=O)C2=C(C1)OC(N)=C(C#N)C2c1cccs1 (configuration not stated) | – | inconclusive: 3.16 µM [inhibitor, partial curve, poor fit]
c1cc2c3c(cccc3c1)NC1(CCCCC1)N2 | inactive: 11.2% | –
C/C(=N\NC(=S)Nc1cc(S(=O)(=O)N2CCOCC2)ccc1Cl)c1ccccc1F | inactive: 10.8% | –
COc1ccc2c(c1)-c1nc(NC(=O)c3ccccc3F)sc1CC2 | – | inconclusive: 22.4 µM [inhibitor, partial curve]
Cc1oc2nc(SCC(=O)Nc3ccc(S(N)(=O)=O)cc3)nc(NC(=O)c3ccccc3)c2c1C | – | inconclusive: 28.2 µM [inhibitor, partial curve]
CCCn1nc(NC(=O)c2cccs2)c2cc3cccc(C)c3nc21 | – | inconclusive: 25.1 µM [inhibitor, partial curve]
O=C(COC(=O)c1ccc(O)cc1)Nc1ncc(Cl)cc1Cl | inactive: 1.14% | –
O=C(NP(=O)(N1CCCC1)N1CCCC1)C1=C(N2CCOCC2)/C(=C/c2cccc([N+](=O)[O-])c2)CC1 | inactive: 0.224% | –
COc1ccc2c(c1)CCc1c(C(=O)N(C)c3ccccc3)noc1-2 | – | inconclusive: 39.8 µM [activator, single point]
Cc1cc(NC(=O)CSc2nc3c([nH]c4ccccc43)c(=O)n2-c2ccccc2)no1 | – | inconclusive: 35.5 µM [inhibitor, single point]
CCc1ccc(NC(=O)c2ccc(F)c(S(=O)(=O)N(C)C3CCCCC3)c2)cc1 | – | inconclusive: 35.5 µM [inhibitor, partial curve]
COc1cc(NC(=O)Cn2cnc3ccccc3c2=O)c(OC)cc1Cl | – | inconclusive: 44.7 µM [inhibitor, single point]
CCn1ccnc1C(O)c1cccc(OC)c1OC (configuration not stated) | – | inconclusive: 1.26 µM [activator, single point]
CCn1c(N)c(Br)c(=O)[nH]c1=O | – | inconclusive: 39.8 µM [inhibitor, single point]
CN(C(=O)COc1ccccc1)c1nc(-c2ccc(F)cc2)cs1 | – | inconclusive: 17.8 µM [inhibitor, partial curve]
Cc1ccc(C)n1-c1c(C(=O)NCCCN2CCN(c3ccc(F)cc3)CC2)sc2ncccc12 | – | inconclusive: 44.7 µM [inhibitor, single point]
O=C(N/N=C1/CCc2ccccc21)C1CC1 | – | inconclusive: 39.8 µM [inhibitor, single point]
O=C(NCCc1ccc(Cl)cc1)C1CCN(S(=O)(=O)c2cccs2)CC1 | inactive: 5.42% | –

Structure (SMILES) | activity, negative = inhibition | Potency
Cc1cccc(C)c1-n1c(SCC(=O)Nc2ccc(C(=O)O)cc2)nnc1-c1cccc(S(=O)(=O)N(C)C)c1 | – | inconclusive: 3.16 µM [activator, single point]
O=C(Nc1ccc2ccccc2c1)c1ccc(NS(=O)(=O)c2ccc(Br)s2)cc1 | – | inconclusive: 20 µM [inhibitor, partial curve, poor fit]
COC(=O)c1ccc(NC(=O)CC2C(=O)N(c3ccc(F)cc3)C(=O)N2Cc2ccc(OC)cc2)cc1 (configuration not stated) | inactive: -13.6% | –
C(=N\Nc1nc2ccccc2[nH]1)/c1cccc2nccnc12 | inactive: 2.71% | –
CC(C)(C)C1CCc2c(sc(NC(=O)C3CC=CCC3C(=O)O)c2C#N)C1 (configuration not stated) | inactive: 14.6% | –
Cc1nc2sc(C(=O)Nc3ccc(F)cc3)c(N)c2c(-c2ccc(Br)cc2)c1C(=O)Nc1ccc(Cl)cc1 | – | inconclusive: 10 µM [inhibitor, partial curve, poor fit]
CCCCC1CCC(C(=O)OCC(=O)Nc2ccc(S(N)(=O)=O)cc2)CC1 (configuration not stated) | – | inconclusive: 17.8 µM [inhibitor, single point]
Clc1ccc(Cn2cccn2)cn1 | – | inconclusive: 35.5 µM [inhibitor, single point]
COc1ccccc1-c1cn[nH]c1-c1ccc(OCc2ccccc2)cc1O | – | inconclusive: 39.8 µM [inhibitor, single point]
O=C(c1cccc(-c2ccc(O)cc2)c1)N1CCOCC1 | inactive: -2.54% | –
CCCCNS(=O)(=O)c1ccc(NC(=O)C(Sc2ccccc2)c2ccccc2)cc1 (configuration not stated) | – | inconclusive: 15.8 µM [inhibitor, partial curve, poor fit]
Cc1ccc(S(=O)(=O)N2CCOCC2)cc1NC(=O)CSc1n[nH]c(N)n1 | inactive: 0.506% | –
Cc1c(Cl)sn(-c2ccc(Cl)cc2)c1=O | – | inconclusive: 25.1 µM [inhibitor, partial curve]
CN(C)CCC(=O)c1ccc2c(c1)OCO2 | – | inconclusive: 20 µM [activator, partial curve]
N#CC1=C2SCN(c3ccccc3)CN2C(=O)CC1c1cccs1 (configuration not stated) | – | inconclusive: 15.8 µM [inhibitor, partial curve]
CCc1ccc(NC(=O)CC2C(=O)N(c3ccc(Cl)cc3)C(=O)N2Cc2cccs2)cc1 (configuration not stated) | – | inconclusive: 25.1 µM [inhibitor, partial curve]
O=S(=O)(c1cccc(Cl)c1Cl)N1CCCCC1 | inactive: 4.79% | –
COc1cccc(NC(=O)Nc2ccc3nsnc3c2)c1 | – | inconclusive: 22.4 µM [inhibitor, single point]
CC(Oc1ccc(F)cc1)C(=O)Nc1cc(-c2ccc(F)c(F)c2)no1 (configuration not stated) | – | inconclusive: 31.6 µM [inhibitor, single point]
CCN(/N=C/C=C/c1ccccc1)c1cc(=O)n(C)c(=O)[nH]1 | inactive: 8.64% | –
COC(=O)c1c(NC(=O)COc2cc(C)c(Cl)c(C)c2)sc2c1CCCC2 | – | inconclusive: 14.1 µM [inhibitor, partial curve]
COc1ccc(-c2nnc(SCC(=O)Nc3ccc(C(C)=O)cc3)nc2-c2ccc(OC)cc2)cc1 | – | inconclusive: 7.08 µM [inhibitor, partial curve]
CCOc1cccc(CNc2ccc(O)cc2)c1OCc1ccccc1Cl | – | active: 11.2 µM

Structure (SMILES) | activity, negative = inhibition | Potency
COc1ccc(C(=O)Nc2ccc(OCc3cc(=O)n4ccccc4n3)cc2)cc1 | – | inconclusive: 22.4 µM [inhibitor, single point]
COC(=O)C1=C(C)C(c2cccs2)NC(=O)N1C (configuration not stated) | inactive: 4.5% | –
Cc1ccc(-c2nc(-c3cccnc3)sc2CC(=O)Nc2ccc(C)c(Cl)c2)cc1 | – | inconclusive: 44.7 µM [inhibitor, single point]
COc1ccccc1/C=C/C=N/N1CCN(c2ccccn2)CC1 | inactive: -2.43% | –
Cc1nn(C2CCS(=O)(=O)C2)c(Cl)c1/C=C/C(=O)OCC(=O)Nc1ccccc1[N+](=O)[O-] (configuration not stated) | – | inconclusive: 39.8 µM [inhibitor, single point]
COc1cc(-c2ccc(N=Nc3ccc4c(S(=O)(=O)O)cc(S(=O)(=O)O)c(N)c4c3O)c(OC)c2)ccc1N=Nc1ccc2c(S(=O)(=O)O)cc(S(=O)(=O)O)c(N)c2c1O | – | active: 2.82 µM
CC(=O)N1CCN(c2ccc(NCc3cccs3)cc2)CC1 | – | inconclusive: 17.8 µM [inhibitor, single point]
COc1ccc(COc2cc(-c3cccc(OC)c3)nc3ccc(NC(=O)c4ccccc4)cc23)cc1 | – | inconclusive: 17.8 µM [inhibitor, partial curve] and inconclusive: 31.6 µM [inhibitor, partial curve, poor fit]
Cc1ccc(-c2ccc(S(=O)(=O)NCc3ccco3)cc2)cc1 | inactive: 2% | –
O=C(Nc1ccc2c(c1)N(C1CCCC1)C(=O)c1ccccc1S2)c1cccc(F)c1 | – | inconclusive: 12.6 µM [inhibitor, partial curve]
Cc1ccc(C(=O)CC(=O)COc2ccc(Cl)cc2C)cc1 | inactive: 1.24% | –
O=c1[nH]c(SCc2ccccc2Cl)nc2c1cnn2-c1ccccc1 | – | inconclusive: 8.91 µM [inhibitor, single point]
Cc1ccc(OCC(=O)Nc2ccc(F)cc2)c([N+](=O)[O-])n1 | inactive: 0.599% | –
CCN(CC)C(=O)Cn1c(SCCOc2ccc(Cl)cc2)nc2ccccc21 | inactive: 0.851% | –
CC(C)(C)N/N=C/c1cc(Cl)cc([N+](=O)[O-])c1O | inactive: 5.01% | –
CCOc1ccc(Cn2c(O)cc(=O)[nH]c2=O)cc1 | – | inconclusive: 28.2 µM [inhibitor, partial curve]
COc1ccc(CN2C(=O)c3cccnc3C2Nc2ccc(OC)c(Cl)c2)cc1 (configuration not stated) | inactive: 11.2% | –
O=C(N/N=C\c1ccc(Cl)s1)c1cccs1 | – | inconclusive: 14.1 µM [inhibitor, partial curve, poor fit]
O=C(COC(=O)/C=C/c1ccc(Cl)cc1)Nc1ccc2c(c1)OCCO2 | – | inconclusive: 8.91 µM [inhibitor, full curve, poor fit]
CCN1CCc2c(C#N)c(NCc3ccccc3)nc(NCCO)c2C1 | – | inconclusive: 25.1 µM [inhibitor, partial curve]
O=c1oc2c(CN3CCOCC3)c(O)c(Cl)cc2c2c1CCCC2 | inactive: -13.4% | –
